# Results from PubChem BioAssay AID651820 (National Center for Advancing Translational Sciences (NCATS), 2012).
# Hit rate of the full screen: of about 340,000 compounds, about 12,000 (3.5%) were called active. The inconclusive results got no clear call from the source; some entries with a clear call stand among them for comparison. Calls follow the shape of the dose curve; as a rule, active = well fitted inhibition curve with a large enough effect; inconclusive = small, poorly fitted or top-dose-only effect, or another doubt; inactive = no such curve, though single readings can be large or run the other way. Potencies of inconclusive entries are left out as doubtful fits. Some compounds were tested as several samples or in several runs, with calls that do not always agree.
# Experiment: qHTS Assay for Inhibitors of Hepatitis C Virus (HCV)
# Settings: Huh7.5.1 HCVcc-Cre (HCVcc is cell-culture hepatitis C virus) infection, luciferase reporter, 44 h; activity change, negative = inhibition: at 41.8 µM (top of the series) unless noted
# In short: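 Seed cells (1,000/well) for 4 h; treat with compound and infect with HCVcc-Cre, moi about 0.5. Incubate 44 h, then detect luciferase activity.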
# % is scaled to controls: 0 for no effect and ±100 for the full control effect; potency is read from the fitted curve at half-maximal effect; tags tell the direction and shape of the fitted curve.
SMILES,Potency,"activity change, negative = inhibition"
COc1ccc(CN(C)C(=O)c2cccc(S(=O)(=O)N3CCc4ccccc43)c2)c(OC)c1,"inconclusive [inhibitor, single point]",
O=C(CN1C(=O)NC(Cc2c[nH]c3ccccc23)C1=O)Nc1ccccc1C(F)(F)F (configuration not stated),inactive,
Cc1cccn2c(=O)c(/C=C(\C#N)S(=O)(=O)c3ccccc3)c(Oc3ccc(Cl)cc3)nc12,"inconclusive [inhibitor, single point]",
COc1cc(N2C(=O)C=CC2=O)ccc1N1C(=O)C=CC1=O,"inconclusive [inhibitor, single point]",
CCCCn1nc(NC(=O)c2cccs2)c2cc3ccccc3nc21,"inconclusive [inhibitor, single point]",
Cc1ccc(OCc2ccc(C(=O)N3CCCC3)o2)c([N+](=O)[O-])c1,"inconclusive [inhibitor, partial curve]",
CC(C)Cn1c(N)c(C(=O)COC(=O)C2CCCCC2)c(=O)n(C)c1=O,"inconclusive [inhibitor, partial curve]",
Cn1c(N/N=C/c2c[nH]c3ccccc23)nc2ccccc21,"inconclusive [inhibitor, single point]",
CC12CCC(O)CC1=CCC1C2CCC2(C)C(c3ccn[nH]3)CCC12 (configuration not stated),"inconclusive [inhibitor, single point]",
CCOC(=O)C1(Cc2ccccc2)CCN(Cc2cccn2-c2nccs2)CC1,"inconclusive [inhibitor, single point]",
CC(=O)O[C@]1(C(C)=O)CCC2C3C=C(C)C4=CC(=O)CC[C@]4(C)C3CC[C@@]21C (some centres not stated),"inconclusive [inhibitor, single point]",
CCc1nc2ccc(C(=O)NCc3ccccc3)cc2nc1CC,"inconclusive [inhibitor, partial curve]",
COCc1cc(N2CCCCC2)nc(-c2ccccc2)n1,active: 5.62 µM,
COc1ccc(C(=O)NC2CCCc3ccccc32)cc1Br (configuration not stated),"inconclusive [inhibitor, full curve]",
Cc1nc(-c2ccc(S(=O)(=O)NCc3cccnc3)s2)cs1,"inconclusive [inhibitor, single point]",
COc1cccc(CNC(=O)c2ccc(C)c(S(=O)(=O)N3CCOCC3)c2)c1,"inconclusive [inhibitor, partial curve]",
CC(C)CNS(=O)(=O)c1ccc(C(=O)Nc2ccc3c(c2)OCCO3)cc1,"inconclusive [inhibitor, single point]",
CCN(CCn1cccn1)Cc1cn[nH]c1-c1ccc(-c2ccccc2)cc1,inactive,
COC(=O)c1ccc(/C=N\N2CCN(c3ccccc3)CC2)cc1,inactive,
CC(C)c1ccccc1OCC(O)CN1CCN(S(=O)(=O)c2ccc([N+](=O)[O-])cc2)CC1 (configuration not stated),active: 12.6 µM,
Cc1cc(C(=O)NNC(=S)NC(=O)/C=C/c2ccccc2Cl)n[nH]1,"inconclusive [inhibitor, single point]",
C=CCn1c(=N)n(CC(=O)c2ccc(OC)cc2)c2ccccc21,inactive,
COc1ccc(NC(=O)CCn2nnc(-c3ccc(C)cc3)n2)cc1OC,"inconclusive [inhibitor, single point]",
CCOC(=O)c1cc(NC(=O)c2cccnc2)cc(C(=O)OCC)c1,"inconclusive [inhibitor, partial curve]",

SMILES,Potency,"activity change, negative = inhibition"
COc1ccc(-c2noc(CNC(=O)c3ccoc3C)n2)cc1,"inconclusive [inhibitor, full curve, poor fit]",
CNCc1ccccc1OCc1ccc(F)cc1,inactive,
COC(=O)CCCC(=O)NC(C)c1cnn(-c2ccccc2C)c1C (configuration not stated),inactive,
CN(C)CCn1c(=N)n(CC(O)c2ccc(Cl)c(Cl)c2)c2ccccc21 (configuration not stated),active: 7.08 µM,
COc1ccc2c(-c3ccccc3)cc(SCC(=O)NC(N)=O)nc2c1,"inconclusive [inhibitor, full curve]",
Cc1nc2c(c(C)nn2-c2ccccc2)c(C)c1C,"inconclusive [inhibitor, single point]",
CCOc1cc(C(=O)OCC(=O)Nc2cc(C)on2)cc(OCC)c1OCC,"inconclusive [inhibitor, single point]",
O=[N+]([O-])c1cc(-c2csc(NCCc3nc4cc(C(F)(F)F)ccc4n3CCCO)n2)ccc1Cl,"inconclusive [inhibitor, full curve, poor fit]",
O=c1[nH]c(=O)n(CCC2=CCCCC2)c(O)c1C=NCCCn1ccnc1,"inconclusive [inhibitor, single point]",
CCOc1ccc2c(c1)sc(N)[n+]2Cc1cc(C)cc2cccnc12,"inconclusive [inhibitor, partial curve]",
CN1CCN(c2cccc3c2C(=O)c2ccccc2C3=O)CC1,"inconclusive [inhibitor, single point]",
CCn1c(=O)c(-c2ccccc2)c(O)c2ccccc21,inactive,
O=C(NCc1ccco1)c1ccccc1SCC(=O)N1CCCC1,inactive,
N=c1c2c(-c3ccccc3)c(-c3ccccc3)n(Cc3ccco3)c2ncn1Cc1ccco1,active: 15.8 µM,
COc1ccc(C(=O)Nc2cc(S(=O)(=O)N3CCCC3)ccc2Cl)cc1,inactive,
COc1cc(C(=O)NCC(=O)NCCN2C(=O)S/C(=C\c3ccccc3Cl)C2=O)cc(OC)c1OC,"inconclusive [inhibitor, single point]",
COc1ccc2oc(-c3ccccc3)c(C(N)=O)c2c1,inactive,
Cc1cc(/C=C\c2ccc3cc(N(C)C)ccc3[n+]2C)c(C)n1-c1ccccc1,active: 1 µM,
O=C(Nc1cccs1)Nc1ccccc1Cl,inactive,
COc1ccc(C(=O)NCC(c2cccnc2)N2CCN(c3ccccc3OC)CC2)cc1OC (configuration not stated),"inconclusive [inhibitor, single point]",
CCCC(=O)Nc1ccc(Cl)c(NC(=S)NC(=O)c2cc3ccccc3o2)c1,"inconclusive [inhibitor, partial curve, poor fit]",
Cc1nn(-c2ccccc2)c(N2CCCC2)c1/C=N/NC(=S)Nc1ccccc1F,"inconclusive [inhibitor, partial curve]",
COC(=O)C1N2C(=O)[C@@H](NC(=O)COc3ccccc3)[C@H]2SC1(C)C (some centres not stated),inactive,
COc1cc(OC)cc(C(=O)N[C@H](C(=O)Nc2ccccc2N2CCOCC2)C(C)C)c1,"inconclusive [inhibitor, single point]",

SMILES,Potency,"activity change, negative = inhibition"
Cc1ccc(NS(=O)(=O)c2cccc3nsnc23)cc1C,inactive,
COc1cccc(NC(=O)CCC(=O)N2CC(C)Oc3ccc(C)cc32)c1 (configuration not stated),"inconclusive [inhibitor, partial curve]",
O=C(COc1ccccc1F)N/N=C1\CCCc2ccccc21,"inconclusive [inhibitor, full curve, poor fit]",
Cc1cccc(N2CCc3c2nc2ccccc2c3N)c1,active: 8.91 µM,
CCN1CCN(C(=O)c2nn(C)c3c2CS(=O)(=O)c2ccccc2-3)CC1,inactive,
Cc1cc(C(=O)OCC(=O)N2CCN(C(=O)c3ccco3)CC2)c(C)n1-c1ccc(F)cc1,inactive,
Cc1onc(-c2ccccc2)c1C(=O)NC(=S)NNC(=O)c1ccncc1,"inconclusive [inhibitor, single point]",
Cc1ccc(C)c(-c2nc3cc(N)ccc3o2)c1,"inconclusive [inhibitor, single point]",
O=C(N=C1SC2CS(=O)(=O)CC2N1c1ccc(F)c(Cl)c1)C1CCCO1 (configuration not stated),inactive,
COc1ccc(CNC(=O)C[C@H]2C[C@H](C(=O)N3CCOCC3)[C@@]3(CCC4CCCC4)c4[nH]c5cc(-c6ccco6)ccc5c4CCN3C2=O)cc1OC,"inconclusive [inhibitor, single point]",
Cc1ccc(NC(=O)c2cc(-c3ccc4c(c3)OCO4)on2)cc1C,inactive,
COc1cc(OC)c(C2=NOC(C(=O)Nc3ccc4c(c3)OCO4)C2)cc1Cl (configuration not stated),"inconclusive [inhibitor, partial curve, poor fit]",
COc1ccc(-n2ccc(=O)c(C(=O)O)n2)c(OC)c1,inactive,
COc1ccc(CCNC(=S)Nc2cc(C)cc(C)c2)cc1,"inconclusive [inhibitor, partial curve]",
CC(=O)N[C@@H](CS)C(=O)O,active: 10 µM,inactive: -11% [at 8.37 µM]
COc1ccc(Cl)cc1NC(=O)CN(C)C1CCCCC1,"inconclusive [inhibitor, single point]",
COc1ccc(C2CC(c3ccccc3)=NN2C(=O)COC(=O)c2nc3nc(C)cc(C)n3n2)cc1 (configuration not stated),active: 10 µM,
CCN(Cc1ccccc1)C(=O)C1CCN(Cc2sccc2C)CC1,inactive,
Cc1cc(C)c2nc(N)sc2c1,"inconclusive [inhibitor, single point]",
O=C(Nc1ccc(N2CCOCC2)cc1N1CCOCC1)c1cccc([N+](=O)[O-])c1,"inconclusive [inhibitor, full curve]",
Cc1ccc(-n2c(C)c3c(C)nnc(C)c3c2C)cc1N,"inconclusive [inhibitor, full curve]",
COc1ccc(/C=C2\SC(=O)N(CC(=O)NNC(=O)c3ccccc3O)C2=O)cc1,inactive,
COc1ccc(Sc2ccc(NC(=O)c3ccccc3Cl)cc2C#N)cc1,active: 11.2 µM,
